These results are taken from patent publication US20240360179A1, “STAPLED PEPTIDES AND METHODS THEREOF” (FOG PHARMACEUTICALS, INC., priority 2021, published 2024).

A value given as a limit tells only on which side of the number the result lay.

The target of assay [1] is T1, beta-catenin/TCF4 interaction (Homo sapiens, UniProt P35222).
T1 construct: host or cells: HEK293
T1 sequence (P35222 1-781): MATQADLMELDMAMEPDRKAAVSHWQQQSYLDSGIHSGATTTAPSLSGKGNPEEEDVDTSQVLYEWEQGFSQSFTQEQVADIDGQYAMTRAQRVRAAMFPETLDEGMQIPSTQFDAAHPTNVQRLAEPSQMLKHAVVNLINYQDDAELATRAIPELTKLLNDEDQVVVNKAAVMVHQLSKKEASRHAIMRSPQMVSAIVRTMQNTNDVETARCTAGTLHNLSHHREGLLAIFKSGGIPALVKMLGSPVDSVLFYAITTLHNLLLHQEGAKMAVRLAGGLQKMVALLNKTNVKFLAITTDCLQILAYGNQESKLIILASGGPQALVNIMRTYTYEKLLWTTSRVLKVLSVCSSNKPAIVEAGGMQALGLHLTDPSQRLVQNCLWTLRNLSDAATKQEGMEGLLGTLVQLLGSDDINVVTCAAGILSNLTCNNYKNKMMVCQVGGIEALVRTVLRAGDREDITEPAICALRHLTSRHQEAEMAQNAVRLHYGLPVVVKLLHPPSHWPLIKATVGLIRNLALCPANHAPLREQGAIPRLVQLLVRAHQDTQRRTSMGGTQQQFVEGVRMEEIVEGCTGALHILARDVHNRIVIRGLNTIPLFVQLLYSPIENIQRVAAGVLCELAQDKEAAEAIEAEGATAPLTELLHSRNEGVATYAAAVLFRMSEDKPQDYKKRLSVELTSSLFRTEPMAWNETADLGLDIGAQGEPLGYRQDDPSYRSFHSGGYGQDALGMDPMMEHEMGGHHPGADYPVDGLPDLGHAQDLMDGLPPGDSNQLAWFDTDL
In words: cell-based. Particulars: NanoBRET Abs IC50 (uM). Background: BRET reads energy transfer from a luciferase to a nearby fluorophore.

Assay [2] addresses T2, full-length B-Catenin (Uniprot ID P35222) (Homo sapiens, UniProt P35222).
T2 construct: 10 nM full-length B-Catenin (Uniprot ID P35222)
T2 sequence (P35222 1-781): T1 sequence (P35222 1-781)
Description: biochemical. Type of assay: binding. Particulars: beta-Catenin FP IC50 (nM), competition fluorescence polarization. A general note: Polarisation of emitted light reports the rotation of a fluorescent probe.

Usually IC50 stands for the concentration at which inhibition is half-maximal.

In the case of `CC(=O)N1CCC[C@@]1(C)C(=O)N[C@@H](CC(=O)O)C(=O)N[C@@H](CC(C)(C)C)C(=O)N[C@]1(C)CCCCCCCCOC(=O)N2CC[C@@]3(C2)NC(=O)[C@H](CCCCNC(=O)CC[C@@H](C(=O)N[C@@H](C)C(N)=O)NC(=O)[C@H](Cc2csc4ccccc24)NC(=O)[C@H](Cc2ccsc2)NC3=O)NC(=O)[C@H](Cc2ccccc2)NC(=O)[C@H](C)NC(=O)C(C)(C)NC(=O)[C@H](Cc2cccc(C(=O)O)c2)NC(=O)[C@H](CC(=O)O)NC1=O` (relative stereo) [I-234, Ac-MePro-Asp-Npg-R5-Asp-3COOHF-Aib-Ala-Phe-Lys*3-PyrS2-3Thi-BztA-GlnR*3-Ala-NH2], the results for the IC50 in assay [1] and in assay [2] were more than 10 µM and less than 50 nM, respectively.
With `CC(=O)N1CCC[C@@]1(C)C(=O)N[C@@H](CC(=O)O)C(=O)N[C@@H](CC(C)(C)C)C(=O)N[C@]1(C)CCCCCCCCOC(=O)N2CC[C@@]3(C2)NC(=O)[C@H](CCCCNC(=O)CC[C@@H](C(=O)N[C@@H](C)C(N)=O)NC(=O)[C@H](Cc2csc4ccccc24)NC(=O)[C@H](Cc2ccsc2)NC3=O)NC(=O)[C@H](Cc2ccccc2)NC(=O)[C@H](C)NC(=O)[C@H](C)NC(=O)[C@H](Cc2cccc(C(=O)O)c2)NC(=O)[C@H](CC(=O)O)NC1=O` (relative stereo) [I-236, Ac-MePro-Asp-Npg-R5-Asp-3COOHF-Ala-Ala-Phe-Lys*3-PyrS2-3Thi-BztA-GlnR*3-Ala-NH2], the IC50 in assay [1] is more than 10 µM; in assay [2] it was less than 50 nM.
Consider `CC(=O)N1CCC[C@@]1(C)C(=O)N[C@@H](CC(=O)O)C(=O)N[C@H](C(=O)N[C@]1(C)CCCCCCCCOC(=O)N2CC[C@@]3(C2)NC(=O)[C@H](CCCCNC(=O)CC[C@@H](C(=O)N[C@@H](C)C(N)=O)NC(=O)[C@H](Cc2csc4ccccc24)NC(=O)[C@H](Cc2ccsc2)NC3=O)NC(=O)[C@H](Cc2ccccc2)NC(=O)[C@H](C)NC(=O)C(C)(C)NC(=O)[C@H](Cc2cccc(C(=O)O)c2)NC(=O)[C@H](CC(=O)O)NC1=O)C(C)C` (relative stereo) [I-237, Ac-MePro-Asp-Val-R5-Asp-3COOHF-Aib-Ala-Phe-Lys*3-PyrS2-3Thi-BztA-GlnR*3-Ala-NH2], for which the IC50 is more than 10 µM in assay [1] and less than 50 nM in assay [2].
In the case of `CCCC[C@H](NC(=O)[C@H](CC(=O)O)NC(=O)[C@]1(C)CCCN1C(C)=O)C(=O)N[C@]1(C)CCCCCCCCOC(=O)N2CC[C@@]3(C2)NC(=O)[C@H](CCCCNC(=O)CC[C@@H](C(=O)N[C@@H](C)C(N)=O)NC(=O)[C@H](Cc2csc4ccccc24)NC(=O)[C@H](Cc2ccsc2)NC3=O)NC(=O)[C@H](Cc2ccccc2)NC(=O)[C@H](C)NC(=O)C(C)(C)NC(=O)[C@H](Cc2cccc(C(=O)O)c2)NC(=O)[C@H](CC(=O)O)NC1=O` (relative stereo) [I-238, Ac-MePro-Asp-nLeu-R5-Asp-3COOHF-Aib-Ala-Phe-Lys*3-PyrS2-3Thi-BztA-GlnR*3-Ala-NH2], the results for the IC50 in assay [1] and in assay [2] were more than 10 µM and less than 50 nM, respectively.
On the same counts, the results for `CC(=O)N1CCC[C@@]1(C)C(=O)N[C@@H](CC(=O)O)C(=O)N[C@@H](CC(C)(C)C)C(=O)N[C@]1(C)CCCCCCCCOC(=O)N2CC[C@@]3(C2)NC(=O)[C@H](CCCCNC(=O)CC[C@@H](C(=O)N[C@@H](C)C(N)=O)NC(=O)[C@H](Cc2csc4ccccc24)NC(=O)[C@H](Cc2ccsc2)NC3=O)NC(=O)[C@H](Cc2ccccc2)NC(=O)[C@H](C)NC(=O)C(C)(C)NC(=O)[C@H](CN(CC(=O)O)CC(F)(F)F)NC(=O)[C@H](CC(=O)O)NC1=O` (relative stereo) [I-240, Ac-MePro-Asp-Npg-R5-Asp-TfeGA-Aib-Ala-Phe-Lys*3-PyrS2-3Thi-BztA-GlnR*3-Ala-NH2] are more than 10 µM and 50 to 200 nM.
For `CC(=O)N1CCC[C@@]1(C)C(=O)N[C@@H](CC(=O)O)C(=O)N[C@@H](CC(C)(C)C)C(=O)N[C@]1(C)CCCCCCCCOC(=O)N2CC[C@@]3(C2)NC(=O)[C@H](CCCCNC(=O)CC[C@@H](C(=O)N[C@@H](C)C(N)=O)NC(=O)[C@H](Cc2csc4ccccc24)NC(=O)[C@H](Cc2ccsc2)NC3=O)NC(=O)[C@H](Cc2ccccc2)NC(=O)[C@H](C)NC(=O)[C@H](C)NC(=O)[C@H](CN(CC(=O)O)CC(F)(F)F)NC(=O)[C@H](CC(=O)O)NC1=O` (relative stereo) [I-242, Ac-MePro-Asp-Npg-R5-Asp-TfeGA-Ala-Ala-Phe-Lys*3-PyrS2-3Thi-BztA-GlnR*3-Ala-NH2] the same measures were more than 10 µM and 200 to 750 nM.
Take `CC(=O)N1CCC[C@@]1(C)C(=O)N[C@@H](CC(=O)O)C(=O)N[C@H](C(=O)N[C@]1(C)CCCCCCCCOC(=O)N2CC[C@@]3(C2)NC(=O)[C@H](CCCCNC(=O)CC[C@@H](C(=O)N[C@@H](C)C(N)=O)NC(=O)[C@H](Cc2csc4ccccc24)NC(=O)[C@H](Cc2ccsc2)NC3=O)NC(=O)[C@H](Cc2ccccc2)NC(=O)[C@H](C)NC(=O)C(C)(C)NC(=O)[C@H](CN(CC(=O)O)CC(F)(F)F)NC(=O)[C@H](CC(=O)O)NC1=O)C(C)C` (relative stereo) [I-243, Ac-MePro-Asp-Val-R5-Asp-TfeGA-Aib-Ala-Phe-Lys*3-PyrS2-3Thi-BztA-GlnR*3-Ala-NH2]: the half-inhibitory concentration (IC50) in assay [1] is more than 10 µM; in assay [2], 50 to 200 nM.
On the same counts, the results for `CCCC[C@H](NC(=O)[C@H](CC(=O)O)NC(=O)[C@]1(C)CCCN1C(C)=O)C(=O)N[C@]1(C)CCCCCCCCOC(=O)N2CC[C@@]3(C2)NC(=O)[C@H](CCCCNC(=O)CC[C@@H](C(=O)N[C@@H](C)C(N)=O)NC(=O)[C@H](Cc2csc4ccccc24)NC(=O)[C@H](Cc2ccsc2)NC3=O)NC(=O)[C@H](Cc2ccccc2)NC(=O)[C@H](C)NC(=O)C(C)(C)NC(=O)[C@H](CN(CC(=O)O)CC(F)(F)F)NC(=O)[C@H](CC(=O)O)NC1=O` (relative stereo) [I-244, Ac-MePro-Asp-nLeu-R5-Asp-TfeGA-Aib-Ala-Phe-Lys*3-PyrS2-3Thi-BztA-GlnR*3-Ala-NH2] are more than 10 µM and 50 to 200 nM.
